Experimental data: PubChem BioAssay AID1768 (National Center for Advancing Translational Sciences (NCATS), 2009)
“And” between values parts separate entries of the source, which are not always exact repeats. Equal entries are not always repeated. Screen size: about 270,000 compounds; about 620 (0.23%) were called active. The shares of active, inactive and inconclusive entries below differ from those in the screen. Calls follow the shape of the dose curve; as a rule, active = well fitted inhibition curve with a large enough effect in the polarisation, with a control signal flat (not every such curve was filed as active); inconclusive = small, poorly fitted or top-dose-only effect, or effect the other way, or a change in a side signal; inactive = no such curve, though single readings can be large or run the other way; the % refers to the polarisation. A potency beside an inconclusive call is a rough fit, not a confirmed value. “Side channel” marks fits to a control or component signal instead of the main read-out.

target: Menin (Homo sapiens) (UniProt O00255); assay: qHTS Assay for Inhibitors Targeting the Menin-MLL Interaction in MLL Related Leukemias: Competition With Texas Red Labeled MLL-derived Mutant Peptide; conditions: fluorescence polarization; series mostly up to 61.6 µM
Sequence of UniProt O00255 (O00255 whole entry, looked up): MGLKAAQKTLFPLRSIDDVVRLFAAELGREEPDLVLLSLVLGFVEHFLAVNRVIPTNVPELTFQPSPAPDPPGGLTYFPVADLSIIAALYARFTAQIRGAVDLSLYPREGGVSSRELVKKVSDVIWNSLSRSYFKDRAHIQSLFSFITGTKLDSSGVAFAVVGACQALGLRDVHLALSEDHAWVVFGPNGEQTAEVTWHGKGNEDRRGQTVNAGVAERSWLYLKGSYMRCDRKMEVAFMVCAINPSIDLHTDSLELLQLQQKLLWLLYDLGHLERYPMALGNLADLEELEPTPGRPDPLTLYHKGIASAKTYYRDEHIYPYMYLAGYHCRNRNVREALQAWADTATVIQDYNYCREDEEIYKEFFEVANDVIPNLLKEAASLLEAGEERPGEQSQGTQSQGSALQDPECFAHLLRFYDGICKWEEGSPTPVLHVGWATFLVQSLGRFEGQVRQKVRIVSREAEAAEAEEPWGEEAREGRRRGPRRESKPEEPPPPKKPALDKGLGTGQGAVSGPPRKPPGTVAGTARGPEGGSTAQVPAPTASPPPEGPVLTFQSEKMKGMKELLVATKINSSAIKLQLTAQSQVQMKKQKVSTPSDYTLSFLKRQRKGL
Potency is read from the fitted curve at half-maximal effect; tags tell the direction and shape of the fitted curve or compound fluorescence and quenching.

Row | SMILES | Potency
1 | CN1CCC(=O)N(C(CSc2ccc(Br)cc2)c2ccccc2)CC1 (configuration not stated) | inactive
2 | CCOC(=O)c1ccc(NC(=O)CNC(=O)c2ccccc2)cc1 | inconclusive: 17.8 µM [inhibitor, single point]
3 | CCOC(=O)c1ccccc1-c1csc(NS(=O)(=O)c2ccc(Cl)cc2)n1 | inconclusive: 28.2 µM [quencher, side channel, single point]
4 | O=C(N=Nc1c(O)n(C2OC(=O)c3ccccc32)c2ccccc12)c1ccc(O)cc1 (configuration not stated) | inconclusive: 31.6 µM [quencher, side channel, partial curve]
5 | O=C(Nc1cccc(F)c1)c1cccnc1NCCc1ccccc1 | inconclusive: 17.8 µM [quencher, side channel, partial curve]
6 | C=CCn1c(=O)c(C(=O)Nc2cccnc2)c(O)c2ccccc21 | inconclusive: 39.8 µM [quencher, side channel, single point]
7 | O=C(N/N=C/c1cc(Br)ccc1O)c1cccc(N2CCCC2=O)c1 | inconclusive: 31.6 µM [quencher, side channel, single point]
8 | O=C(c1ccc2ccccc2c1)N1CCc2ccccc21 | inconclusive: 39.8 µM [fluorescent, side channel, single point]
9 | CC(C)c1ccc(OCC(=O)NNC(=S)NC(=O)c2ccco2)c(Br)c1 | inconclusive: 17.8 µM [quencher, side channel, partial curve]
10 | O=C(CC1C(=O)NCCN1CC1CCCCC1)NCc1ccccc1Cl (configuration not stated) | inconclusive: 31.6 µM [fluorescent, side channel, partial curve]
11 | CN1c2cc3c(cc2N=C(c2ccc(C(=O)O)cc2)c2ccccc21)C(C)(C)CCC3(C)C | inconclusive: 12.6 µM [quencher, side channel, partial curve]
12 | COc1cc(/C=C/C(=O)O)cc(S(=O)(=O)NCCCO)c1OC | inactive
13 | COc1ccc(CCNC(=O)CSc2nnc(CNc3ccc(Cl)cc3)o2)cc1OC | inconclusive: 39.8 µM [quencher, side channel, single point]
14 | O=C(Oc1ccccc1)c1ccc2nsnc2c1 | inconclusive: 25.1 µM [quencher, side channel, partial curve]
15 | Cc1ccc(-n2nc3ccc(NC(=O)/C=C/c4ccco4)cc3n2)cc1 | inconclusive: 10 µM [quencher, side channel, partial curve]
16 | CCCCCn1c(=O)[nH]c2cc(C(=O)N3CCN(c4ccccc4F)CC3)ccc2c1=O | inconclusive: 31.6 µM [fluorescent, side channel, single point]
17 | CC(C)c1ccc(NC2CCCN(C(=O)CN3CCCC3=O)C2)cc1 (configuration not stated) | inconclusive: 0.631 µM [inhibitor, partial curve, poor fit]
18 | CC(=O)Oc1ccc(N2C(=O)C3C4C=CC(CO)(O4)C3C2=O)cc1 (configuration not stated) | inactive
19 | CN1C(=O)C(C(=O)Nc2ccccc2F)c2ccccc21 (configuration not stated) | inconclusive: 12.6 µM [quencher, side channel, partial curve]

Row | SMILES | Potency
20 | O=C(O)c1ccccc1C1=Nc2ccc(O)cc2Oc2cc(O)ccc21 | inconclusive: 22.4 µM [inhibitor, single point]
21 | CCOc1ccc(NC(=O)CN2CCN(CC(=O)Nc3ccc(OC)cc3OC)CC2)cc1 | inconclusive: 39.8 µM [inhibitor, single point]
22 | Cc1ccc(NC(=O)c2cc(-c3ccco3)on2)cc1C | inconclusive: 31.6 µM [quencher, side channel, partial curve]
23 | Cn1c(=O)c(-c2ccc(Cl)cc2)nc2cnc(Oc3ccccc3)nc21 | inconclusive: 7.08 µM [inhibitor, full curve, poor fit]
24 | Cc1ccc(Nc2cc(C)nc(-c3ccccc3O)n2)cc1 | inconclusive: 12.6 µM [quencher, side channel, partial curve]
25 | Nc1[nH]c(N=NC(=O)c2ccccc2O)c2ccccc12 | inactive
26 | O=C1c2c(O)cccc2Cc2cccc(O)c21 | inconclusive: 10 µM [quencher, side channel, full curve] and inconclusive: 794 nM [quencher, side channel, full curve]
27 | CN(C)c1ccc(C(=O)Nc2nc3c(s2)CCCC3)cc1 | inconclusive: 20 µM [quencher, side channel, partial curve]
28 | COc1ccc2[nH]c(=O)c3c(c2c1)OC(C)(C)C=C3 | inconclusive: 39.8 µM [inhibitor, partial curve]
29 | NNC(=O)c1cc2ccccc2cc1NS(=O)(=O)c1ccccc1 | inconclusive: 10 µM [quencher, side channel, partial curve]
30 | COc1cc2c(C#N)c(N3CCCCC3)nc(N)c2c(N)n1 | inconclusive: 28.2 µM [quencher, side channel, single point]
31 | CC(=O)Nc1ccc(C(=O)CSc2nnc(Cc3ccccc3)o2)cc1 | inconclusive: 39.8 µM [fluorescent, side channel, single point]
32 | O=C(Nc1ccc(S(=O)(=O)N2CCOCC2)cc1)c1cccs1 | inconclusive: 3.16 µM [inhibitor, partial curve]
33 | O=C(O)c1ccc(N/N=C/c2cc3c(cc2[N+](=O)[O-])OCO3)cc1 | inconclusive: 25.1 µM [quencher, side channel, single point]
34 | O=C1CC(N2CCN(Cc3ccc4c(c3)OCO4)CC2)C(=O)N1c1ccccc1 (configuration not stated) | inconclusive: 8.91 µM [inhibitor, full curve]
35 | C/C(CC(=O)Nc1ccc2ccccc2c1)=N\NC(=O)c1ccc(O)c(O)c1 | inconclusive: 12.6 µM [quencher, side channel, partial curve]
36 | CCN1C(=O)C(CC(=O)NCCc2ccccc2)N(NC(=O)c2cccnc2)C1=S (configuration not stated) | inactive
37 | Cc1ccccc1N1CC(C(=O)Nc2nnc(SCCC3OCCO3)s2)CC1=O (configuration not stated) | inconclusive: 15.8 µM [quencher, side channel, partial curve]
